Key:
[1] = biological target: Voltage-gated inwardly rectifying potassium channel KCNH2 (Homo sapiens, UniProt Q12809); conditions: hek293
Cytochrome P450 1A2 = biological target: T1, Cytochrome P450 1A2 (Homo sapiens, UniProt P05177); conditions: bti-tn-5b1-4
T1 sequence (P05177 whole entry): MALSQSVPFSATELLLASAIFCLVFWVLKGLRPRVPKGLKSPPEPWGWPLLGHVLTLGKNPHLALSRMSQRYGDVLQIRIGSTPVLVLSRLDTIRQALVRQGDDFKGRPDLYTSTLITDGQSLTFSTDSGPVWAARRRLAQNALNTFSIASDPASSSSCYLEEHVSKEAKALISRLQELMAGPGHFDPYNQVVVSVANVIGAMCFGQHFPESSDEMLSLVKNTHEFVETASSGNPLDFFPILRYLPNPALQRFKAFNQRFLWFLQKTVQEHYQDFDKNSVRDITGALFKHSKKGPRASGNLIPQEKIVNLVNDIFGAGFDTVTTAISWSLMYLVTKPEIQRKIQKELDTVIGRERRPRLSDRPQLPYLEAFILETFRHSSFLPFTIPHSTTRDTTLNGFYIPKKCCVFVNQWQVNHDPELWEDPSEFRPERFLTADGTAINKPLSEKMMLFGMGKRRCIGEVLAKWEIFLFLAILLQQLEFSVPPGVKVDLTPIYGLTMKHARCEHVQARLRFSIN

Cytochrome P450 2E1 = Cytochrome P450 2E1 (Homo sapiens, UniProt P05181); conditions: bti-tn-5b1-4
Cytochrome P450 2E1, sequence (P05181 whole entry): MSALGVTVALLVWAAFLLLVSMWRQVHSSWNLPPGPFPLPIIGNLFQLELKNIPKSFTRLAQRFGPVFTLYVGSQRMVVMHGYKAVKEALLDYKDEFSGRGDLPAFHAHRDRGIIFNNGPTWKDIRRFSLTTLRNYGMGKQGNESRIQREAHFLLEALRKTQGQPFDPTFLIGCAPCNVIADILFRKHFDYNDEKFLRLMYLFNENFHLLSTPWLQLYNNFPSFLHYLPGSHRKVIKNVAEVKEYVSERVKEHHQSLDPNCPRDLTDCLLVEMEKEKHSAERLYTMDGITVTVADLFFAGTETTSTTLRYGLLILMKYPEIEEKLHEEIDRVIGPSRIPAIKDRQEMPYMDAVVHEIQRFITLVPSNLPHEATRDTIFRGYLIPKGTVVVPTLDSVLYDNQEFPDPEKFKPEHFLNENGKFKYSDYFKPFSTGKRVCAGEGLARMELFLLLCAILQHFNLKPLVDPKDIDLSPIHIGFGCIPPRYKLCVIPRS

Cytochrome P450 2C9 = Cytochrome P450 2C9 (Homo sapiens, UniProt P11712); conditions: bti-tn-5b1-4
Cytochrome P450 2C9, sequence (P11712 whole entry): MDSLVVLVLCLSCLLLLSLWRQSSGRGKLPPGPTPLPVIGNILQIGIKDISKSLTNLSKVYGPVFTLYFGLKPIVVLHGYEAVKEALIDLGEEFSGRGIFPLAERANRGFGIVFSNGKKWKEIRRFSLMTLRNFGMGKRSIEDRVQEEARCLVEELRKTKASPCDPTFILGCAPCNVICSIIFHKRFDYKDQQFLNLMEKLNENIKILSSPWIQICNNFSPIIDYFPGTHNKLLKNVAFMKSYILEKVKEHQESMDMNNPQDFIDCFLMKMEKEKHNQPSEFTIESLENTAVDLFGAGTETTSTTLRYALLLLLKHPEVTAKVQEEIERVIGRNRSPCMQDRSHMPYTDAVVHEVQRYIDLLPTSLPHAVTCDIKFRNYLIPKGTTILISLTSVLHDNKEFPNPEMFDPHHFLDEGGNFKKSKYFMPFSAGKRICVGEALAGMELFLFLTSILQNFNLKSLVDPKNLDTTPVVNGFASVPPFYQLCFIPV

Cytochrome P450 2A6 = biological target: T2, Cytochrome P450 2A6 (Homo sapiens, UniProt P11509); conditions: bti-tn-5b1-4
T2 sequence (P11509 whole entry): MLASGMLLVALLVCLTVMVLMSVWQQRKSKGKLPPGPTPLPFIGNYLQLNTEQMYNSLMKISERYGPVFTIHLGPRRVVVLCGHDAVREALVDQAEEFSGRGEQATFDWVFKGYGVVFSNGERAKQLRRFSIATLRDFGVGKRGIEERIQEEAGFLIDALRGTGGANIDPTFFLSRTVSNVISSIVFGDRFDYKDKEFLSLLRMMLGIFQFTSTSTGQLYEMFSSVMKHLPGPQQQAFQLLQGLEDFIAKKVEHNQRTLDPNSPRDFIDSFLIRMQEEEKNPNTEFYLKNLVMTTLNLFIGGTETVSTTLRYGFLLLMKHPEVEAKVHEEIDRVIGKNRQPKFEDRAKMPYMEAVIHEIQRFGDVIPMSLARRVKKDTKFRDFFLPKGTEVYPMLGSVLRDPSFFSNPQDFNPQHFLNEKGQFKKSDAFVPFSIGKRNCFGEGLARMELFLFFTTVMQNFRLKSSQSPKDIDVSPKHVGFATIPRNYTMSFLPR

Cytochrome P450 3A4 = Cytochrome P450 3A4 (Homo sapiens, UniProt P08684); conditions: bti-tn-5b1-4
Cytochrome P450 3A4, sequence (P08684 whole entry): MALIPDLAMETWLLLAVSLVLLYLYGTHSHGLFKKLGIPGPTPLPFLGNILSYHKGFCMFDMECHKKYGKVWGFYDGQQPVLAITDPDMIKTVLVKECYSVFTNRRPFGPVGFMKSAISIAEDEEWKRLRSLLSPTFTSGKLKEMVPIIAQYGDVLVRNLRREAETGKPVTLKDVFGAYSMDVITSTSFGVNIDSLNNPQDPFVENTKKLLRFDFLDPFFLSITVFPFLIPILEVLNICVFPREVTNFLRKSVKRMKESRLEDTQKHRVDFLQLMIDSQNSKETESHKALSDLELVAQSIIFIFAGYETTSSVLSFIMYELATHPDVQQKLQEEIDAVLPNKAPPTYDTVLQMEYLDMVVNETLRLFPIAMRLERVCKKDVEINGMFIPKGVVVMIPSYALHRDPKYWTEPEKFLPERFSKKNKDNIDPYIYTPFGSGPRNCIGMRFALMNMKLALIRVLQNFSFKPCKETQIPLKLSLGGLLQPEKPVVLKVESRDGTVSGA

Cytochrome P450 2D6 = Cytochrome P450 2D6 (Homo sapiens, UniProt P10635); conditions: bti-tn-5b1-4
Cytochrome P450 2D6, sequence (P10635 whole entry): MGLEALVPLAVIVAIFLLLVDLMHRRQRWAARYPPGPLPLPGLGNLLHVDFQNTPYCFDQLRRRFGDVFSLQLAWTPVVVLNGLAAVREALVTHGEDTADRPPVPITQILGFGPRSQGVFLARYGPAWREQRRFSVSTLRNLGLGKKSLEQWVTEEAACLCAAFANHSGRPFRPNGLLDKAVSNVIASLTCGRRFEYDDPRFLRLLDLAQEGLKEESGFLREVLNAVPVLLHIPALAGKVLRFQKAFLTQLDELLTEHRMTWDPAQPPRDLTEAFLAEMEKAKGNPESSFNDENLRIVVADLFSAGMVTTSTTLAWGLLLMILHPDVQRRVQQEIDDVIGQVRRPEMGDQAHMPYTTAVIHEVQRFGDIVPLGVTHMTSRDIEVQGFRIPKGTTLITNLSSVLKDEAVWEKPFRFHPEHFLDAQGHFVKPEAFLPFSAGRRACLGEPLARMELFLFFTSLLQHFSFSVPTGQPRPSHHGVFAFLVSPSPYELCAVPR

Cytochrome P450 2C19 = Cytochrome P450 2C19 (Homo sapiens, UniProt P33261); conditions: bti-tn-5b1-4
Cytochrome P450 2C19, sequence (P33261 whole entry): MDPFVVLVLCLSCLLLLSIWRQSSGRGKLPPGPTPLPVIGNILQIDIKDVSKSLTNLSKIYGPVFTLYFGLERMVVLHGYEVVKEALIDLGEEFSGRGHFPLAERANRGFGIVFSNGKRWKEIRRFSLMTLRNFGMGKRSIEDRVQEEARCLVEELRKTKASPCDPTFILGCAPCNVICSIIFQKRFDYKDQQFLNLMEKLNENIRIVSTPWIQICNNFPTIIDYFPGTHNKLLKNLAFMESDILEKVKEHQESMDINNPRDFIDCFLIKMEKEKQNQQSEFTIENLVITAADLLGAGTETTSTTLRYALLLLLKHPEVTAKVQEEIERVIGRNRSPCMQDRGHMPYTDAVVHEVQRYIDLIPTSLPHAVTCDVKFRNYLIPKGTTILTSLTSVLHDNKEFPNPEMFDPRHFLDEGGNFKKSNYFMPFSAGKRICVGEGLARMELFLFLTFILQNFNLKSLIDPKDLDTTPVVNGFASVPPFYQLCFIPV
Also: in other assays of this panel Not Active means under 50% inhibition at 10 µM.

Voltage-gated inwardly rectifying potassium channel KCNH2, sequence (Q12809 whole entry): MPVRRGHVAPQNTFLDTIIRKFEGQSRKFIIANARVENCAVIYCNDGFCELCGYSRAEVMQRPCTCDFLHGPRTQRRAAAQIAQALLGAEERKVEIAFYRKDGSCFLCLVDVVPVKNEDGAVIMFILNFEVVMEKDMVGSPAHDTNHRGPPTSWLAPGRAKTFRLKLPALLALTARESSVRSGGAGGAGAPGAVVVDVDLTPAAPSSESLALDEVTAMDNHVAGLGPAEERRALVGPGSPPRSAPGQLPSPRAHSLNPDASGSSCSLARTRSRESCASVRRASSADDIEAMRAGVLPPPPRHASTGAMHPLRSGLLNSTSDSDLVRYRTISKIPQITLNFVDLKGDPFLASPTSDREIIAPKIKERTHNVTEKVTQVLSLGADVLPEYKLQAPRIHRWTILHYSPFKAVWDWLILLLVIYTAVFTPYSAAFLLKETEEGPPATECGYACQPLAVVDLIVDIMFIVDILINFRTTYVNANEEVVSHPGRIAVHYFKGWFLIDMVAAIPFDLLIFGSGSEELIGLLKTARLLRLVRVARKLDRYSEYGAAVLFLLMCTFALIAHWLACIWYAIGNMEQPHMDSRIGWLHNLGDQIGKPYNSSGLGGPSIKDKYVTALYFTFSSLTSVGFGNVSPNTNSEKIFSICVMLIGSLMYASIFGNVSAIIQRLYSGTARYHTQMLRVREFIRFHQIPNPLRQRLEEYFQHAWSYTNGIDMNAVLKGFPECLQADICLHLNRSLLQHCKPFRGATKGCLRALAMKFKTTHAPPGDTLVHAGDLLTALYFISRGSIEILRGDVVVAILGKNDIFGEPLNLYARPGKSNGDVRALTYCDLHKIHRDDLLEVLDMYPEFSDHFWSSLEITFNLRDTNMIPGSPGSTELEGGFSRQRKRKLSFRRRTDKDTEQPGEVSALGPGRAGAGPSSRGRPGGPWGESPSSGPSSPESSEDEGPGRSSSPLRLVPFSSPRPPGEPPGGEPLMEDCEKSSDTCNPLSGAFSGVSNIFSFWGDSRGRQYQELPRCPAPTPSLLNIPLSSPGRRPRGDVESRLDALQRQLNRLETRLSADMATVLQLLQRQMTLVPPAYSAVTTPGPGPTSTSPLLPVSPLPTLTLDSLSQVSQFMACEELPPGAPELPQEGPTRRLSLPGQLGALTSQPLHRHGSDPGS

CCn1cc(C(=O)O)c(=O)c2cc(F)c(N3CCN(C)CC3)cc21 [PEFLOXACIN]
Not Active: IC50 [1] | Ki [1] | IC50 (Cytochrome P450 1A2) | Ki (Cytochrome P450 1A2) | IC50 (Cytochrome P450 2E1) | Ki (Cytochrome P450 2E1) | IC50 (Cytochrome P450 2C9) | Ki (Cytochrome P450 2C9) | IC50 (Cytochrome P450 2A6) | Ki (Cytochrome P450 2A6) | IC50 (Cytochrome P450 3A4) | Ki (Cytochrome P450 3A4) | IC50 (Cytochrome P450 2D6) | Ki (Cytochrome P450 2D6) | IC50 (Cytochrome P450 2C19) | Ki (Cytochrome P450 2C19)

Source: ChEMBL document CHEMBL1909046, “DrugMatrix in vitro pharmacology data”
